PubChem BioAssay (NCI)
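How tested: cells in 96-well plates exposed to compound for 48 hours at five concentrations. The concentration for full growth arrest is given as TGI.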 A number of entries come with more than one value. The list is limited to them. There may be further records. The tests behind the records often covered other concentration ranges, not given here; a value can be the end of its range.

Tests used:
Experiment in all cases: NCI tumour cell line growth inhibition, 48 h
MDA-N = tested on: MDA-N
UACC-257 melanoma = tested on: UACC-257 melanoma
MALME-3M melanoma = tested on: MALME-3M melanoma
SK-MEL-5 melanoma = tested on: SK-MEL-5 melanoma

C/C(=N\NC(=S)N(C)C)c1ccccn1
TGI (MDA-N): 602 nM and 17.1 µM
TGI (UACC-257 melanoma): 137 nM and 2.17 µM
TGI (MALME-3M melanoma): 531 nM and 15 µM
TGI (SK-MEL-5 melanoma): 79.9 nM and 5.65 µM
